pEC50, pKi: −log10 of the molar value. Active and inactive are the calls of the source. The rule behind the calls is not given here. Where a SMILES comes first, the peptide text is derived from it. [ ]: non-standard residue; d: D form. dPhe(4-Cl) = N[C@H](Cc1ccc(Cl)cc1)C(=O)O; d2Nal = N[C@H](Cc1ccc2ccccc2c1)C(=O)O; dCit = NC(=O)NCCC[C@@H](N)C(=O)O; d3Pal = N[C@H](Cc1cccnc1)C(=O)O
Experiments:
[1] = biological target: T1, Kappa-type opioid receptor (Homo sapiens, UniProt P41145); experiment: Agonist activity at KOR (unknown origin) by Glo sensor assay; assay type: functional
T1 sequence (P41145 whole entry): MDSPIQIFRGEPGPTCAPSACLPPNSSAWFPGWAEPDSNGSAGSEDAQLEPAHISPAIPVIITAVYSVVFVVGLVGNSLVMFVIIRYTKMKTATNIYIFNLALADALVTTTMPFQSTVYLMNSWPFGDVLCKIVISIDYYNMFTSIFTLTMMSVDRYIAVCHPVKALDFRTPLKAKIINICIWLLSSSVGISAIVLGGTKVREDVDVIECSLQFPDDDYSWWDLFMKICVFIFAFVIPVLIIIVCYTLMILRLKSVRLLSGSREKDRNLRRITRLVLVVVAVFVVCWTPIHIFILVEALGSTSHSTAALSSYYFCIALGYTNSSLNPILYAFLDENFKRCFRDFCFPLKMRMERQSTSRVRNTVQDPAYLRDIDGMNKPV

[2] = biological target: T2, Mas-related G-protein coupled receptor member X2 (Homo sapiens) (UniProt Q96LB1); experiment: Agonist activity at N-terminal Flag-tagged human MRGPRX2 receptor expressed in tetracycline-induced FLP-IN/T-REX 293 cells assessed as increase in intracellular calcium release 0.003 to 100000 nM by FLIPR assay; assay type: functional, cell-based; settings: dose 0.003-100000 nM
T2 sequence (whole entry): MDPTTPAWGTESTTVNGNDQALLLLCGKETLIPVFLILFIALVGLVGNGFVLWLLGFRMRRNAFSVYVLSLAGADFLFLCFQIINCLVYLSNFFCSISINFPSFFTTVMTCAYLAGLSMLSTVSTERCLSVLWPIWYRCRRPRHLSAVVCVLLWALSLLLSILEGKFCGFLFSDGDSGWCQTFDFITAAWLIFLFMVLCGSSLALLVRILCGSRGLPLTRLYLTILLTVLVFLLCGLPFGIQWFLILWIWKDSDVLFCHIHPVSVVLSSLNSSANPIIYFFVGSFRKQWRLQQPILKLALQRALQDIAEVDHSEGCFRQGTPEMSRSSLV
In short: (§1)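 FLIPR calcium: FLP-IN/T-REX HEK-293-T stable line with N-terminal FLAG codon-optimized receptor, induced 24 h with 1 μg/mL tetracycline in 1% dialyzed FBS (uninduced cells as control); FLIPR calcium dye plus 2.5 mM probenecid 1 h 37°C; 10 s baseline, then drug in HBSS/20 mM HEPES/probenecid pH 7.4, 16-point curve 10 μM to 0.003 nM; fluorescence 120 s; fold over basal, n=3 triplicate.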

[3] = biological target: T3, Mas-related G-protein coupled receptor member X2 (Homo sapiens, UniProt Q96LB1); experiment: Agonist activity at N-terminal Flag-tagged human MRGPRX2 receptor expressed in tetracycline-induced FLP-IN/T-REX 293 cells assessed as increase in intracellular calcium release by FLIPR assay; assay type: functional, cell-based; settings: for EC50: read-out: pEC50 (converted); for pEC50: read-out: EC50
T3 sequence (Q96LB1 whole entry): T2 sequence (whole entry)

[4] = biological target: T3, Mas-related G-protein coupled receptor member X2; experiment: Agonist activity at MRGPRX2 (unknown origin) expressed in HTLA cells assessed as induction of beta-arrestin 2 recruitment incubated for 18 to 24 hrs by PRESTO-Tango assay; assay type: functional, cell-based; settings: for EC50: read-out: pEC50 (converted); for pEC50: read-out: EC50
[5] = biological target: T2, Mas-related G-protein coupled receptor member X2 (Homo sapiens); experiment: Agonist activity at N-terminal Flag-tagged human MRGPRX2 receptor expressed in tetracycline-induced FLP-IN/T-REX 293 cells assessed as increase in intracellular calcium release up to 100 uM by FLIPR assay; assay type: functional, cell-based; in short: as §1
[6] = biological target: T2, Mas-related G-protein coupled receptor member X2 (Homo sapiens); experiment: Agonist activity at MRGPRX2 receptor in human LAD2 cells assessed as increase in intracellular calcium release by FLIPR assay; assay type: functional, cell-based
In short: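 LAD2 human mast cells seeded 50,000/well in Tyrode's buffer with calcium dye, 1 h before drug; 10 s baseline, drug added, fluorescence followed 120 s; expressed as fold calcium release over baseline; n=3 in triplicate.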

Mu-type opioid receptor = Mu-type opioid receptor (Homo sapiens, UniProt P35372); experiment: Displacement of [3H]-DAMGO from MOR (unknown origin)
Chain of UniProt P35372 (P35372 whole entry): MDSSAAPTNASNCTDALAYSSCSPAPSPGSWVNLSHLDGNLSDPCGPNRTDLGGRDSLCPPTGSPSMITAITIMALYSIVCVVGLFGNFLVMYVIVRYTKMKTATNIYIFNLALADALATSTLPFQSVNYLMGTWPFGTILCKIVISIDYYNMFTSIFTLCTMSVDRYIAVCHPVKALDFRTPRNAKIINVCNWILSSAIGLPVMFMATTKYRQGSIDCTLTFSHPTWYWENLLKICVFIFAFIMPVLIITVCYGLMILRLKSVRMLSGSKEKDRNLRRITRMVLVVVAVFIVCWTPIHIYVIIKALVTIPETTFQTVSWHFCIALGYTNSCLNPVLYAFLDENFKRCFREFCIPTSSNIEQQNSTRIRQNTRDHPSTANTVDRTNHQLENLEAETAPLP

[7] = biological target: T1, Kappa-type opioid receptor; experiment: Displacement of [3H]-Diprenorphine from KOR (unknown origin)
[8] = biological target: Delta-type opioid receptor (Homo sapiens, UniProt P41143); experiment: Displacement of [3H]-Naltrindole from DOR (unknown origin)
Chain of UniProt P41143 (P41143 whole entry): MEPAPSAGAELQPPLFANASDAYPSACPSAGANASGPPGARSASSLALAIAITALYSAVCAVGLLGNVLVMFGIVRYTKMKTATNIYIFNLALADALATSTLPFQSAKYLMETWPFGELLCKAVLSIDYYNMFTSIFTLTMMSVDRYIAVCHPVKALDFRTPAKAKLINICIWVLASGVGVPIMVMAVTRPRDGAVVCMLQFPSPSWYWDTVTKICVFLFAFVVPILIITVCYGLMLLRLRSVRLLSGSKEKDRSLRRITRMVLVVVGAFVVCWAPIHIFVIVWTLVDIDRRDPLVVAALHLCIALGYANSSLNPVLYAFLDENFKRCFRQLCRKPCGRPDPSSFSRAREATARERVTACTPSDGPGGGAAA

[9] = biological target: T2, Mas-related G-protein coupled receptor member X2 (Homo sapiens); experiment: Antagonist activity at MRGPRX2 (unknown origin) expressed in HTLA cells assessed as reduction in (+/-)-TAN-67 induced beta-arrestin 2 recruitment at 30 uM incubated for 18 to 24 hrs by PRESTO-Tango assay; assay type: functional, cell-based; settings: time 18-24 hrs
[10] = biological target: T2, Mas-related G-protein coupled receptor member X2 (Homo sapiens); experiment: Agonist activity at N-terminal Flag-tagged human MRGPRX2 receptor expressed in tetracycline-induced HEK-T cells assessed as increase in intracellular calcium release by FLIPR assay; assay type: functional, cell-based; settings: HEK-T cell, filed as agonist; in short: as §1
[11] = biological target: T2, Mas-related G-protein coupled receptor member X2 (Homo sapiens); experiment: Agonist activity at N-terminal Flag-tagged human MRGPRX2 receptor expressed in HEK-T cells assessed as increase in intracellular calcium release by FLIPR assay; assay type: functional, cell-based; settings: HEK-T cell; in short: as §1
HTLA [12] = experiment: Agonist activity at MRGPRX2 E164D mutant (unknown origin) expressed in HTLA cells assessed as induction of beta-arrestin 2 recruitment incubated for 18 to 24 hrs by PRESTO-Tango assay; assay type: cell-based; settings: Homo sapiens, filed as agonist, time 18-24 hrs
In short: (§2)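 β-arrestin2 recruitment by PRESTO-Tango: HTLA cells transiently transfected (calcium phosphate) with codon-optimized MRGPRX2-Tango (WT or point mutant) or MRGPRB2-Tango, plated next day 20,000 cells/well on poly-L-lysine; drug in HBSS/20 mM HEPES/0.3% BSA pH 7.4 for 18–24 h; Bright-Glo luminescence (RLU); curves n=3 in triplicate, mutants n=4 in triplicate.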

HTLA [13] = experiment: Agonist activity at MRGPRX2 D184E mutant (unknown origin) expressed in HTLA cells assessed as induction of beta-arrestin 2 recruitment incubated for 18 to 24 hrs by PRESTO-Tango assay; assay type: cell-based; settings: Homo sapiens, time 18-24 hrs; in short: as §2
[14] = biological target: T2, Mas-related G-protein coupled receptor member X2 (Homo sapiens); experiment: Agonist activity at MRGPRX2 receptor in human LAD2 cells assessed as increase in degranulation incubated for 30 mins by beta-hexosaminidase assay; assay type: functional, cell-based; settings: filed as agonist
In short: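 β-Hexosaminidase release: LAD2 cells in fresh medium 18 h, washed in Tyrode's buffer pH 7.4, 10,000 cells/well; drug (single concentration or 8-point curve) added in triplicate, 30 min 37°C; supernatant and Triton X-100 lysate each reacted with NAG in citrate pH 4.5 for 90 min 37°C, stopped with carbonate pH 10, A405; % release = released/total ×100, minus vehicle.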

H-YGGFLR-OH
pEC50 [1]: 6.86 | Activity [2]: inactive

CC(=O)N[C@H](Cc1ccc2ccccc2c1)C(=O)N[C@H](Cc1ccc(Cl)cc1)C(=O)N[C@H](Cc1cccnc1)C(=O)N[C@@H](CO)C(=O)N[C@@H](Cc1ccc(O)cc1)C(=O)N[C@H](CCCNC(N)=O)C(=O)N[C@@H](CC(C)C)C(=O)N[C@@H](CCCNC(=N)N)C(=O)N1CCC[C@H]1C(=O)N[C@H](C)C(N)=O [CETRORELIX] (Ac-[d2Nal][dPhe(4-Cl)][d3Pal]SY[dCit]LRP[dA]-NH2)
EC50 [3]: 0.617 µM | EC50 [4]: 0.813 µM

CCN(CC)C(=O)c1ccc(C2=CC3(CCNCC3)Oc3cccc(O)c32)cc1 [ADL-5859]
EC50 [4]: 5.13 µM

COc1c(N2C[C@@H]3CCCN[C@@H]3C2)c(F)cc2c(=O)c(C(=O)O)cn(C3CC3)c12 [MOXIFLOXACIN]
EC50 [3]: > 31.6 µM | Activity [5]: inactive | EC50 [4]: > 31.6 µM

CN1CC[C@]23c4c5ccc(O[C@@H]6O[C@H](C(=O)O)[C@@H](O)[C@H](O)[C@H]6O)c4O[C@@]2(O)[C@@H](O)C=C[C@H]3[C@H]1C5
pEC50 [4]: 4.55

C[C@@H](NC(=O)[C@@H](N)Cc1ccc(O)cc1)C(=O)NCC(=O)N(C)[C@@H](Cc1ccccc1)C(=O)NCCO
Activity [6]: inactive

CN1CC[C@]2(c3cccc(O)c3)Cc3nc4ccccc4cc3C[C@H]2C1
pEC50 [3]: 6.54 | EC50 [4]: 0.427 µM | pEC50 (Mu-type opioid receptor): 5.68 | pKi (Mu-type opioid receptor): 5.81 | pEC50 [7]: 4.95 | pKi [7]: 5.56 | pEC50 [8]: 6.02 | pKi [8]: 6.67

COc1ccc(CC2c3cc(OC)c(OC)cc3CC[N+]2(C)CCC(=O)OCCCCCOC(=O)CC[N+]2(C)CCc3cc(OC)c(OC)cc3C2Cc2ccc(OC)c(OC)c2)cc1OC (stereo not drawn)
EC50 [3]: > 31.6 µM | Activity [5]: inactive | EC50 [4]: > 31.6 µM

Oc1ccc2c3c1O[C@H]1[C@H](N(CCCl)CCCl)CC[C@@]4(O)[C@@H](C2)N(CC2CC2)CC[C@]314
Activity [9]: inactive

Oc1ccc2c3c1O[C@H]1c4[nH]c5ccccc5c4C[C@@]4(O)[C@@H](C2)N(CC2CC2)CC[C@]314
Activity [9]: inactive

C[C@@H]1[C@@H]2Cc3ccc(O)cc3[C@@]1(C)CCN2CC1CC1
Activity [5]: inactive

O=C1CC[C@@]2(O)[C@H]3Cc4ccc(O)c5c4[C@@]2(CCN3CC2CC2)[C@H]1O5
Activity [5]: inactive | Activity [9]: inactive

H-YGGFLRKY-OH
EC50 [3]: 4.27 µM | pEC50 [1]: 8.92

COC1=C[C@@H]2[C@@H]3Cc4ccc(OC)c(O)c4[C@]2(CCN3C)CC1=O [SINOMENINE]
EC50 [3]: 3.98 µM | EC50 [4]: 5.37 µM | Activity [10]: Active | Activity [11]: inactive

CN1CC[C@@]23c4c5ccc(O)c4O[C@@H]2[C@H](O)C=C[C@@H]3[C@@H]1C5
EC50 [3]: 5.01 µM | EC50 [4]: 3.39 µM | Activity (HTLA [12]): Active | Activity (HTLA [13]): inactive | Activity ([6]; filed as agonist): Active | Activity [14]: Active

COc1ccc2c3c1O[C@H]1[C@@H](O[C@@H]4O[C@H](C(=O)O)[C@@H](O)[C@H](O)[C@H]4O)C=C[C@H]4[C@@H](C2)N(C)CC[C@@]341
EC50 [4]: 43.7 µM

COC1=CC=C2[C@@H]3Cc4ccc(OC)c5c4[C@@]2(CCN3C)[C@H]1O5
EC50 [3]: 70.8 µM

COc1ccc2c(c1)[C@]13CCCC[C@@H]1[C@H](C2)N(C)CC3 [DEXTROMETHORPHAN]
EC50 [3]: 5.89 µM | EC50 [4]: 3.24 µM | Activity [10]: Active | Activity [11]: inactive

H-YGGFLRKYP-OH
pEC50 [1]: 7.25

COc1ccc2c3c1O[C@@H]1[C@H](O)C=C[C@@H]4[C@H](C2)N(C)CC[C@]341
EC50 [3]: 13.8 µM | EC50 [4]: 5.5 µM

CN1CC[C@]23Cc4nc5ccccc5cc4C[C@@]2(O)[C@H]1Cc1ccc(O)cc13
EC50 [4]: 18.6 µM

H-KWDNQ-OH
Activity [2]: inactive

H-YGGFLRRIR-OH
pEC50 [3]: 4.97 | pEC50 [1]: 9.51

CN1CC[C@]23CCCC[C@H]2[C@H]1Cc1ccc(O)cc13 [LEVORPHANOL]
pEC50 [3]: 4.85 | pEC50 [4]: 4.62 | EC50 [4]: 22.4 µM

C=CC[N+]1([C@H]2C[C@H]3[C@@H]4CC[C@H]5C[C@H](O)[C@@H](N6CCOCC6)C[C@]5(C)[C@H]4CC[C@]3(C)[C@H]2OC(C)=O)CCCC1 [ROCURONIUM]
EC50 [3]: > 31.6 µM | Activity [5]: inactive | EC50 [4]: > 31.6 µM

C[C@H]1COc2c(N3CCN(C)CC3)c(F)cc3c(=O)c(C(=O)O)cn1c23 [LEVOFLOXACIN ANHYDROUS]
EC50 [3]: > 31.6 µM | Activity [5]: inactive | EC50 [4]: > 31.6 µM

C[C@H]1[C@H]2Cc3ccc(O)cc3[C@]1(C)CCN2CC1CC1
Activity [6]: inactive

CC(C)C[C@H](NC(=O)[C@H](Cc1ccccc1)NC(=O)CNC(=O)CNC(=O)[C@@H](N)Cc1ccc(O)cc1)C(=O)N[C@@H](CCCN=C(N)N)C(=O)N[C@@H](CCCN=C(N)N)C(=O)O
Activity [2]: inactive

NC(N)=NCCC[C@@H](N)C(=O)N[C@@H](CCCN=C(N)N)C(=O)N1CCC[C@H]1C(=O)N1C[C@H](O)C[C@H]1C(=O)NCC(=O)N[C@@H](Cc1cccs1)C(=O)N[C@@H](CO)C(=O)N1Cc2ccccc2C[C@@H]1C(=O)N1[C@H](C(=O)N[C@@H](CCCN=C(N)N)C(=O)O)C[C@@H]2CCCC[C@@H]21 [ICATIBANT]
EC50 [3]: 28.2 µM | EC50 [4]: > 31.6 µM

C=CCN1C[C@H](C)N([C@H](c2ccc(C(=O)N(CC)CC)cc2)c2cccc(O)c2)C[C@H]1C
Activity [6]: inactive

COC(=O)[C@@H]1C[C@H](OC(C)=O)C(=O)[C@H]2[C@@]1(C)CC[C@H]1C(=O)O[C@H](c3ccoc3)C[C@]21C
Activity [6]: inactive

C[C@H]1[C@H]2Cc3ccc(O)cc3C1(C)CCN2C
EC50 [3]: 15.1 µM | EC50 [4]: 19.1 µM
